One molecule from paper PMC12022045 (Nature Communications, 2025) can be followed below.

For this assay, the target named is T1, His-MED15 (human, UniProt Q96RN5-2 1-748).
T1 sequence (looked up): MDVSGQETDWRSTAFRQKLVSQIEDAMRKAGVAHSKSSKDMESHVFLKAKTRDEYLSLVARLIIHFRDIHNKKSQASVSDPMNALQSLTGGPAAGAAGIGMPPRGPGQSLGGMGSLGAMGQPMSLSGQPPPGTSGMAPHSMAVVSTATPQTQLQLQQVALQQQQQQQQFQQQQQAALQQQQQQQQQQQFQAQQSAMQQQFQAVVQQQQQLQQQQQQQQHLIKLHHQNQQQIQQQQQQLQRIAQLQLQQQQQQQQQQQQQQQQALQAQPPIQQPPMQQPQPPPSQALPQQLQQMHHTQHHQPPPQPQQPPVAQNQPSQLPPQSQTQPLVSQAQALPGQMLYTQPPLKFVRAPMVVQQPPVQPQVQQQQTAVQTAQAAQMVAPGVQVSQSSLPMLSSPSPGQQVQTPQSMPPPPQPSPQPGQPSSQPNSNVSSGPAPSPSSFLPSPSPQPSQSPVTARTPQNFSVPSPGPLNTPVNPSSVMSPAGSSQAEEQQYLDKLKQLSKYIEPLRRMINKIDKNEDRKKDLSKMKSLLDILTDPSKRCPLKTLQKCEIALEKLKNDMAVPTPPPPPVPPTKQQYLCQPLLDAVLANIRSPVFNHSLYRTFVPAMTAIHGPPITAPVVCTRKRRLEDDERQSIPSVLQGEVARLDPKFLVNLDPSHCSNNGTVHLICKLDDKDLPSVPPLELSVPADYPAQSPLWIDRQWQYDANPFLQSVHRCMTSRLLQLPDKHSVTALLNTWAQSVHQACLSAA
Kind of assay: SPR. Background: Surface plasmon resonance follows binding to a sensor surface in real time, without labels.

B1: His-YAP (natural protein)
chain: not shown
On to B1, for which the affinity, expressed as Kd, was 27.5 ± 14.8 nM.
